The target of test [1] is T1, Full-length xMcm10, yeast two-hybrid fusion (Xenopus laevis) (UniProt Q5EAW4).
T1 sequence: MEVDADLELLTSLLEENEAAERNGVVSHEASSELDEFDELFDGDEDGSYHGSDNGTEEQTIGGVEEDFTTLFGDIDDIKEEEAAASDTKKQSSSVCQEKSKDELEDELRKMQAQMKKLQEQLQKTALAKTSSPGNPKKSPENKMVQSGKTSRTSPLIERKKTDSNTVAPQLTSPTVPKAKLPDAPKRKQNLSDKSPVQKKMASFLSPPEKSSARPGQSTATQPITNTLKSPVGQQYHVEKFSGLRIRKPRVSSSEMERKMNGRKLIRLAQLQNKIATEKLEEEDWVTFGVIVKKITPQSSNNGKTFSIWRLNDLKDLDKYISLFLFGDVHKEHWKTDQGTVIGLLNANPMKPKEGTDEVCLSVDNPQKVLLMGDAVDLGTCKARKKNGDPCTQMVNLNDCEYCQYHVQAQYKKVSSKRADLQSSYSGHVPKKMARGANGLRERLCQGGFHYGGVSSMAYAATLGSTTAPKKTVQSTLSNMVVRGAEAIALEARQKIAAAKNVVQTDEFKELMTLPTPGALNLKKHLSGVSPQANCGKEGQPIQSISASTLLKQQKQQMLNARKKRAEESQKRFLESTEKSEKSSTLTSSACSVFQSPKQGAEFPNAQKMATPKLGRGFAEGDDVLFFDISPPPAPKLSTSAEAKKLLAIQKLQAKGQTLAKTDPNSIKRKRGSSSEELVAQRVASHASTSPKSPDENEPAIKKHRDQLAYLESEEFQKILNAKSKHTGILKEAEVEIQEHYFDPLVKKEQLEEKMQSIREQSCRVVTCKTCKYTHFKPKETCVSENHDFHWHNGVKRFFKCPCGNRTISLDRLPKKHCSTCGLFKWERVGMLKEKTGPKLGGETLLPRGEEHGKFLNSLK
Description: two-hybrid; Matchmaker 3, Gal4-binding domain baits (pGBKT7) and Gal4-activation domain preys (pGADT7) in AH109; scored on plates lacking adenine, leucine, histidine and tryptophan.

The target of test [2] is MBP-CC 95-124 (xMcm10 residues 95-124 fused to maltose binding protein) (Xenopus laevis) (UniProt Q5EAW4). As to the kind of experiment: AUC; sedimentation velocity of wild-type, 2D and 4A MBP-CC 95-124 and NTD (Figure 5), 42,000 rpm, 20°C, 0.6 mg/ml; which of the two buffers (pH 7.4 or pH 4.7) is not stated for this figure; both purified.
The target of test [3] is Mcm10-NTD (aa 1-145) (Xenopus laevis) (UniProt Q5EAW4). Described as above.

These are yes or no findings as the source states them, for the method shown. Some binding calls cover weakened binding; strength is not graded here. For part of these data: Sequences can lack the tags named with a protein.

B1: Full-length xMcm10, yeast two-hybrid fusion (protein, UniProt Q5EAW4 1-860)
chain: MEVDADLELLTSLLEENEAAERNGVVSHEASSELDEFDELFDGDEDGSYHGSDNGTEEQTIGGVEEDFTTLFGDIDDIKEEEAAASDTKKQSSSVCQEKSKDELEDELRKMQAQMKKLQEQLQKTALAKTSSPGNPKKSPENKMVQSGKTSRTSPLIERKKTDSNTVAPQLTSPTVPKAKLPDAPKRKQNLSDKSPVQKKMASFLSPPEKSSARPGQSTATQPITNTLKSPVGQQYHVEKFSGLRIRKPRVSSSEMERKMNGRKLIRLAQLQNKIATEKLEEEDWVTFGVIVKKITPQSSNNGKTFSIWRLNDLKDLDKYISLFLFGDVHKEHWKTDQGTVIGLLNANPMKPKEGTDEVCLSVDNPQKVLLMGDAVDLGTCKARKKNGDPCTQMVNLNDCEYCQYHVQAQYKKVSSKRADLQSSYSGHVPKKMARGANGLRERLCQGGFHYGGVSSMAYAATLGSTTAPKKTVQSTLSNMVVRGAEAIALEARQKIAAAKNVVQTDEFKELMTLPTPGALNLKKHLSGVSPQANCGKEGQPIQSISASTLLKQQKQQMLNARKKRAEESQKRFLESTEKSEKSSTLTSSACSVFQSPKQGAEFPNAQKMATPKLGRGFAEGDDVLFFDISPPPAPKLSTSAEAKKLLAIQKLQAKGQTLAKTDPNSIKRKRGSSSEELVAQRVASHASTSPKSPDENEPAIKKHRDQLAYLESEEFQKILNAKSKHTGILKEAEVEIQEHYFDPLVKKEQLEEKMQSIREQSCRVVTCKTCKYTHFKPKETCVSENHDFHWHNGVKRFFKCPCGNRTISLDRLPKKHCSTCGLFKWERVGMLKEKTGPKLGGETLLPRGEEHGKFLNSLK
Take B1: the binding entry in test [1] is reported as “binds”.

B2: Mcm10^4A (full-length xMcm10 L104A/L108A/M115A/L118A), yeast two-hybrid fusion (protein, UniProt Q5EAW4 1-860)
chain: MEVDADLELLTSLLEENEAAERNGVVSHEASSELDEFDELFDGDEDGSYHGSDNGTEEQTIGGVEEDFTTLFGDIDDIKEEEAAASDTKKQSSSVCQEKSKDEAEDEARKMQAQAKKAQEQLQKTALAKTSSPGNPKKSPENKMVQSGKTSRTSPLIERKKTDSNTVAPQLTSPTVPKAKLPDAPKRKQNLSDKSPVQKKMASFLSPPEKSSARPGQSTATQPITNTLKSPVGQQYHVEKFSGLRIRKPRVSSSEMERKMNGRKLIRLAQLQNKIATEKLEEEDWVTFGVIVKKITPQSSNNGKTFSIWRLNDLKDLDKYISLFLFGDVHKEHWKTDQGTVIGLLNANPMKPKEGTDEVCLSVDNPQKVLLMGDAVDLGTCKARKKNGDPCTQMVNLNDCEYCQYHVQAQYKKVSSKRADLQSSYSGHVPKKMARGANGLRERLCQGGFHYGGVSSMAYAATLGSTTAPKKTVQSTLSNMVVRGAEAIALEARQKIAAAKNVVQTDEFKELMTLPTPGALNLKKHLSGVSPQANCGKEGQPIQSISASTLLKQQKQQMLNARKKRAEESQKRFLESTEKSEKSSTLTSSACSVFQSPKQGAEFPNAQKMATPKLGRGFAEGDDVLFFDISPPPAPKLSTSAEAKKLLAIQKLQAKGQTLAKTDPNSIKRKRGSSSEELVAQRVASHASTSPKSPDENEPAIKKHRDQLAYLESEEFQKILNAKSKHTGILKEAEVEIQEHYFDPLVKKEQLEEKMQSIREQSCRVVTCKTCKYTHFKPKETCVSENHDFHWHNGVKRFFKCPCGNRTISLDRLPKKHCSTCGLFKWERVGMLKEKTGPKLGGETLLPRGEEHGKFLNSLK
With B2, the binding result in test [1] is “no binding”.

B3: Mcm10^2D (full-length xMcm10 L104D/L108D), yeast two-hybrid fusion (protein, UniProt Q5EAW4 1-860)
chain: MEVDADLELLTSLLEENEAAERNGVVSHEASSELDEFDELFDGDEDGSYHGSDNGTEEQTIGGVEEDFTTLFGDIDDIKEEEAAASDTKKQSSSVCQEKSKDEDEDEDRKMQAQMKKLQEQLQKTALAKTSSPGNPKKSPENKMVQSGKTSRTSPLIERKKTDSNTVAPQLTSPTVPKAKLPDAPKRKQNLSDKSPVQKKMASFLSPPEKSSARPGQSTATQPITNTLKSPVGQQYHVEKFSGLRIRKPRVSSSEMERKMNGRKLIRLAQLQNKIATEKLEEEDWVTFGVIVKKITPQSSNNGKTFSIWRLNDLKDLDKYISLFLFGDVHKEHWKTDQGTVIGLLNANPMKPKEGTDEVCLSVDNPQKVLLMGDAVDLGTCKARKKNGDPCTQMVNLNDCEYCQYHVQAQYKKVSSKRADLQSSYSGHVPKKMARGANGLRERLCQGGFHYGGVSSMAYAATLGSTTAPKKTVQSTLSNMVVRGAEAIALEARQKIAAAKNVVQTDEFKELMTLPTPGALNLKKHLSGVSPQANCGKEGQPIQSISASTLLKQQKQQMLNARKKRAEESQKRFLESTEKSEKSSTLTSSACSVFQSPKQGAEFPNAQKMATPKLGRGFAEGDDVLFFDISPPPAPKLSTSAEAKKLLAIQKLQAKGQTLAKTDPNSIKRKRGSSSEELVAQRVASHASTSPKSPDENEPAIKKHRDQLAYLESEEFQKILNAKSKHTGILKEAEVEIQEHYFDPLVKKEQLEEKMQSIREQSCRVVTCKTCKYTHFKPKETCVSENHDFHWHNGVKRFFKCPCGNRTISLDRLPKKHCSTCGLFKWERVGMLKEKTGPKLGGETLLPRGEEHGKFLNSLK
Turning to B3, the binding entry in test [1] was “no binding”.

B4: Mcm10ΔN (residues 230-860), yeast two-hybrid fusion (domain or fragment, UniProt Q5EAW4 230-860)
chain: SPVGQQYHVEKFSGLRIRKPRVSSSEMERKMNGRKLIRLAQLQNKIATEKLEEEDWVTFGVIVKKITPQSSNNGKTFSIWRLNDLKDLDKYISLFLFGDVHKEHWKTDQGTVIGLLNANPMKPKEGTDEVCLSVDNPQKVLLMGDAVDLGTCKARKKNGDPCTQMVNLNDCEYCQYHVQAQYKKVSSKRADLQSSYSGHVPKKMARGANGLRERLCQGGFHYGGVSSMAYAATLGSTTAPKKTVQSTLSNMVVRGAEAIALEARQKIAAAKNVVQTDEFKELMTLPTPGALNLKKHLSGVSPQANCGKEGQPIQSISASTLLKQQKQQMLNARKKRAEESQKRFLESTEKSEKSSTLTSSACSVFQSPKQGAEFPNAQKMATPKLGRGFAEGDDVLFFDISPPPAPKLSTSAEAKKLLAIQKLQAKGQTLAKTDPNSIKRKRGSSSEELVAQRVASHASTSPKSPDENEPAIKKHRDQLAYLESEEFQKILNAKSKHTGILKEAEVEIQEHYFDPLVKKEQLEEKMQSIREQSCRVVTCKTCKYTHFKPKETCVSENHDFHWHNGVKRFFKCPCGNRTISLDRLPKKHCSTCGLFKWERVGMLKEKTGPKLGGETLLPRGEEHGKFLNSLK
In the case of B4, the binding result in test [1] is “no binding”.

B5: MBP-CC 95-124 (xMcm10 residues 95-124 fused to maltose binding protein) (domain or fragment, Xenopus laevis, UniProt Q5EAW4 95-124, looked up)
chain: VCQEKSKDELEDELRKMQAQMKKLQEQLQK
notes: Mcm10, Xenopus laevis, coiled-coil region, residues 95-124 (95-122 in the final model); Trimer in the crystal; dimer in sedimentation velocity; MBPX(E) as in PDB 3H4Z; also called xMcm10-CC^95–124; wild-type CC; source: E. coli C41, purified (amylose resin, Superdex S200); not shown: MBP (mutant form MBPX(E) residues 1-367; uncleavable linker AAAMG), N-terminal, kept
For the molecule B5, the binding entry in test [2] was “binds”.

B6: Mcm10-NTD (aa 1-145) (domain or fragment, UniProt Q5EAW4 1-145)
chain: MEVDADLELLTSLLEENEAAERNGVVSHEASSELDEFDELFDGDEDGSYHGSDNGTEEQTIGGVEEDFTTLFGDIDDIKEEEAAASDTKKQSSSVCQEKSKDELEDELRKMQAQMKKLQEQLQKTALAKTSSPGNPKKSPENKMV
On to B6, for which the binding entry in test [3] was “binds”.
